The labels stand for the following.
B1: tRNA (parent)
chain: CUCUCGGUAGCCAAGUUGGUUUAAGGCGCAAGACUUUAAUUUAUCACUACGAAAUCUUGAGAUCGGGCGUUCGACUCGCCCCCGGGAGAUUUUUUCCUCGAGCAA

167 variants from the RNAGym collection of RNA variant scans (doi:10.1101/gad.245936.114) can be followed below.

Variants at the background level are over-represented here.

Variants of B1 are the subject of this series. Nature of the series: nonsense suppression (GFP-seq) (ratio to wild type); higher = more function; SUP4oc tRNA, yeast GFP reporter sort-seq. Put shortly: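 Nonsense suppression (GFPSEQ) is the median GFP/RFP ratio of each sorting bin, weighted by the variant's estimated share of cells in that bin and expressed relative to the unmutated parent tRNA. Yeast strains carried genome-integrated variants of an ochre-suppressor tRNA from a library with ~3% random mutations, plus a galactose-driven GFP ochre reporter and RFP, and were grown in raffinose/galactose medium containing 80 mg/L adenine. Cells were sorted into GFP/RFP bins, each bin was Illumina-sequenced (phred ≥30), and variants were kept only with ≥100 reads and ≥30 cells.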
With C5U U17G U22A A24G C29U G65C, the nonsense suppression is not above 0.026.
Take A31C U55C G78C: the nonsense suppression was not above 0.026.
The same measure for U8A U16G G61U: not above 0.026; for C1A U21C: not above 0.026.
The same measure for U16A U22C: 1.08; for C1U A13C C80G: not above 0.026; for U20A A31C: not above 0.026.
Take U8G A9C A24C C34G U70C: the nonsense suppression is not above 0.026.
The figure for U8C G15A U21A G25A is not above 0.026.
The same measure for G15U U21A U55G: not above 0.026; for G25U G32A C34G: not above 0.026; for G19U U20G U55C C68A C81G: not above 0.026.
The same measure for U8C C12U U63C G78A: not above 0.026; for U55C C77U G78U: not above 0.026.
For the variant G7A A60G, the nonsense suppression is 0.053.
The figure for C5G G15U is not above 0.026; for G32U A33U it is not above 0.026; for U58A C81A it is not above 0.026.
The same measure for U20G U55C: 0.849; for U58G G66A: not above 0.026; for U21A A33U: not above 0.026.
The figure for C5G G67U C81G is not above 0.026; for C1G G19U G28U G61U G78A it is not above 0.026; for U70G G88A A89U it is not above 0.026.
On to A23G C27U G88A, for which the nonsense suppression was not above 0.026.
The figure for C1U A54G C56G is not above 0.026.
The figure for U20G A60U G86C is not above 0.026; for U76A G86A it is not above 0.026; for A31C C34U U58A G66A G88C it is not above 0.026.
The figure for A9G U70G U76A C83G G86U is not above 0.026; for C1A U57G U70A G86U it is not above 0.026.
Regarding A13U A74U C77A C80G, the nonsense suppression is not above 0.026.
C1U U16A G25C C83G: the nonsense suppression was not above 0.026.
Turning to G25A U58A A74U, the nonsense suppression was not above 0.026.
The same measure for C11A A30U C56A C75U U76G: not above 0.026.
The same measure for G19U U71G G84A: not above 0.026; for G7U U58G C80G: not above 0.026.
On to U4C C11A A33G A74U, for which the nonsense suppression was not above 0.026.
The figure for C5U U8G U17A U22A U55A U63C is not above 0.026.
The same measure for G15C C27U A33C: not above 0.026; for U17G U71A: not above 0.026; for G7U A9U C80G: not above 0.026.
Turning to C64U C81A, the nonsense suppression is not above 0.026.
The same measure for C3G U17G G73A: not above 0.026; for A60C G73U: 0.049; for G28A A30U U63G: not above 0.026.
The figure for U4C A30U is 0.0792; for C5G A30U it is not above 0.026.
The figure for C75G C83A G84C is not above 0.026; for C34A G84A A87G it is not above 0.026.
For the variant G59U C72U, the nonsense suppression was not above 0.026.
The figure for C5U A31G G73A is not above 0.026.
The same measure for U4G G32C G73C G86U: not above 0.026.
The same measure for U4G C11A U55C U63G: not above 0.026; for A9C C12G U22G: not above 0.026; for G6C A14C: not above 0.026.
As to A23U G67U, the nonsense suppression is not above 0.026.
The same measure for C29G G61A G88A: not above 0.026.
The figure for C5U G15U G61U A89C is not above 0.026; for C5U C11U G66A G88C it is not above 0.026; for C11U U76C C83A it is not above 0.026.
The figure for G69A G78A G86U is not above 0.026; for U20C G84U it is not above 0.026; for A31U G32C it is not above 0.026.
On to A23C U63A G78C, for which the nonsense suppression was not above 0.026.
The same measure for G15A G28C U71G C79A: not above 0.026.
The figure for U2A U20G G26A A30G U57C G73U is not above 0.026; for C56A G66A A89C it is not above 0.026.
Regarding C12G C56G G61C, the nonsense suppression was not above 0.026.
The same measure for A9C C68G: not above 0.026.
The same measure for G25C U63C: not above 0.026.
The same measure for G6U G7A G61C U76C: not above 0.026; for A23U U63A: 0.207.
With C12G U20A A54U A62C, the nonsense suppression is not above 0.026.
Take U21C G25A G32A C34G: the nonsense suppression was not above 0.026.
The same measure for U21G A60G: 0.0299.
The same measure for A23G U57G G73A G78A: not above 0.026; for G15U U58G G73C: not above 0.026; for G6A C12G U35A C79U A87G: not above 0.026.
Consider G15A C64A C72A, for which the nonsense suppression was not above 0.026.
With G25C U55A C80U, the nonsense suppression is not above 0.026.
A9G G18C C29U: the nonsense suppression is not above 0.026.
The figure for C5G U21C A23U C81A is not above 0.026; for U55G C64G it is not above 0.026.
The figure for C3U A89G is not above 0.026; for A9U A24U C56G G61U it is not above 0.026.
The figure for A23G A24U G28C is not above 0.026; for U8A C29U U55A it is not above 0.026.
Consider C12A G61C C79U, for which the nonsense suppression is not above 0.026.
The same measure for G10A U17G A33U: not above 0.026; for C12A G67A G88C: not above 0.026; for G59U G73C A89C: not above 0.026.
The figure for U4G C12A U17G G65C G66A C83A is not above 0.026.
The same measure for C27A G86C: not above 0.026.
Consider U8C G18A, for which the nonsense suppression is not above 0.026.
Take G69A C75U G86C: the nonsense suppression was not above 0.026.
The figure for A14C A60U C68U is not above 0.026.
The same measure for U57G C80G C82G: not above 0.026; for G10C G19U C27U G67C: not above 0.026; for U63A G65U: not above 0.026.
Turning to U22G C27A, the nonsense suppression was not above 0.026.
As for U21C G66C C82G C83G, the nonsense suppression is not above 0.026.
The figure for U2G G28U is not above 0.026; for C11G G26C it is 0.359; for U22A A31G it is 1.05.
For C11A A24C A60C, the nonsense suppression is not above 0.026.
On to A31G G61A A62U U76A, for which the nonsense suppression is not above 0.026.
G19C A54G: the nonsense suppression was not above 0.026.
The same measure for C1G A9U G15U C72G C79G: not above 0.026.
The figure for A24U U57G is not above 0.026; for C29U C34G it is not above 0.026; for G7U C12U G15U U21A it is not above 0.026.
For the variant C56G U71C C80A, the nonsense suppression is not above 0.026.
G66U C75A: the nonsense suppression came to 0.704.
Turning to A13G G15U U35G, the nonsense suppression was not above 0.026.
Regarding U20G C68A, the nonsense suppression was not above 0.026.
The same measure for C12G U16C U22A C77U: not above 0.026; for C1A U21G C80G G85U: not above 0.026; for U2A U55C C77A: not above 0.026.
The same measure for A13C A23U C72G: not above 0.026.
The same measure for A9U A13G C81G: not above 0.026; for U35A G86C: not above 0.026.
Consider G15U U21C G69C, for which the nonsense suppression is not above 0.026.
The same measure for C3G G59A G61C G86C: not above 0.026.
A9G A30G: the nonsense suppression turned out to be 0.466.
The same measure for G7U G32A U58G: not above 0.026; for G73U A87G: not above 0.026; for A23G G59A C83A G88U: not above 0.026.
The same measure for U4G U21C G73A: not above 0.026; for U35C C77A G85C: not above 0.026.
The figure for C64U G84U is not above 0.026.
C3U A30C C77G: the nonsense suppression was not above 0.026.
The figure for G18U A87C is not above 0.026; for G73U it is not above 0.026; for U2A C34A it is not above 0.026.
The figure for A9G G26C G59U is not above 0.026.
Regarding G6C G10A U21A, the nonsense suppression is not above 0.026.
The same measure for A54C C56G U70C G78C: not above 0.026; for G15U A24C G69A G88U A89C: not above 0.026.
As for U2C A14U C29A G73A, the nonsense suppression is not above 0.026.
The figure for A9U C29G A54C U70A C83U is not above 0.026; for U8A G32A it is not above 0.026.
The same measure for C12A U35C G59C C64G: not above 0.026; for A60U G85C: not above 0.026; for A62G C80U: not above 0.026.
The same measure for C3A G66U: not above 0.026; for C1U G18A A30C: not above 0.026.
As for A14C C68A G73C, the nonsense suppression is not above 0.026.
The same measure for U20C A33G C82G: not above 0.026; for C3G A62C C83G: not above 0.026.
Regarding G19A C83U A89C, the nonsense suppression is not above 0.026.
The same measure for C1U C68U: not above 0.026.
With A30C A74U, the nonsense suppression is not above 0.026.
The figure for G26C C29G C56A is not above 0.026; for G15C U22A G25A A33U U55C C56A it is not above 0.026; for U4C U20C it is 1.05.
The figure for G6U U76C is not above 0.026; for U35A A54G it is not above 0.026; for A9C G18A A74C it is not above 0.026.
The figure for U20A C80U A87U is not above 0.026; for C1U U20C A24G G85C it is not above 0.026; for G7U A31C G88A it is not above 0.026.
Turning to U76C G88U A89U, the nonsense suppression was not above 0.026.
Consider A9G G59U C83U G86C, for which the nonsense suppression is not above 0.026.
The figure for U2C is 0.185.
The figure for C3U C34U U71A A74U is not above 0.026; for A13C U22G A30G A33C G61U C77U it is not above 0.026.
